Out of some 310,000 compounds screened, about 2,200 (0.71%) showed an effect of 50% or more. Effects have a minus sign here. The list shows a part of the results.

Chain of human ether-à-go-go-related gene (hERG) potassium channel (Q12809 whole entry, looked up): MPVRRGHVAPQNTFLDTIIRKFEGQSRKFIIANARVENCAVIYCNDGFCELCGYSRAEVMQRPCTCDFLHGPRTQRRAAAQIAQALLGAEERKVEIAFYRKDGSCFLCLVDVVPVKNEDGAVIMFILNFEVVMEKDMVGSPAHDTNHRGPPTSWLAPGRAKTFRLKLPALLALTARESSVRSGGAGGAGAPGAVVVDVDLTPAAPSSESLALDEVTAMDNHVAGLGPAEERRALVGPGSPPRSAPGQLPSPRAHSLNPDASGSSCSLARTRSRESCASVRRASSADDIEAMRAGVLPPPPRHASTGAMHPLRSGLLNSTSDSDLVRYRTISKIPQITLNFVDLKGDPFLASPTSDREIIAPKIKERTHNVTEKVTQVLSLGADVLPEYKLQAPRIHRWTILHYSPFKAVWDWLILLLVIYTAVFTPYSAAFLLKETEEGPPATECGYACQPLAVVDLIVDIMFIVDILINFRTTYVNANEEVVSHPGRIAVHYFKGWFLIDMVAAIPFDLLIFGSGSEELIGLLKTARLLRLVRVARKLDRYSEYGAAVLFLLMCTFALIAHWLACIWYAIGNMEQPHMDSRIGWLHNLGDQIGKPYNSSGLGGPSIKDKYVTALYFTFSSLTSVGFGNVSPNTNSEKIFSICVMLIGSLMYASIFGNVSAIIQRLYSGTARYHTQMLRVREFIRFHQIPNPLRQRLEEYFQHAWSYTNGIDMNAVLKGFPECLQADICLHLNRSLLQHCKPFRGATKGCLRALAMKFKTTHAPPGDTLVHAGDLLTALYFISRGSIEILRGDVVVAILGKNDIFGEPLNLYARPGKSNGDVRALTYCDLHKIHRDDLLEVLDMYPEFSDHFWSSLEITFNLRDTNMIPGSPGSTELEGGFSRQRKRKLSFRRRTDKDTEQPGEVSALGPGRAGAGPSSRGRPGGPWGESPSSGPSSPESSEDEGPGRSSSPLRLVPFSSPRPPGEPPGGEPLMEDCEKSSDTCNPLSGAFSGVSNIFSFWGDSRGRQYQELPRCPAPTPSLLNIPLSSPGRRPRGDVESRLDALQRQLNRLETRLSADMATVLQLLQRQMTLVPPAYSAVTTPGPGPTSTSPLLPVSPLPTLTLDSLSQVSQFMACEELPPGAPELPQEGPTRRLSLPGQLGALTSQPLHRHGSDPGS

The experiment addresses human ether-à-go-go-related gene (hERG) potassium channel (human, UniProt Q12809). Kind of experiment: primary screen, population patch clamp on CHO cells stably expressing hERG.
Consider `COc1ccc(C2CC(c3ccc4ccccc4c3)=NN2C(=O)CN2C(=O)CCC2=O)cc1` (stereo not drawn), for which the “hERG current change (%, negative = inhibition) at 1uM” value was 7.79%. `COc1cccc(C(=O)CSc2nnnn2C)c1`: the “hERG current change (%, negative = inhibition) at 1uM” value was found to be 9.2%.

As for `Cc1cccc(C)c1OCC(=O)NC(Cc1c[nH]c2ccccc12)C(=O)O` (stereo not drawn), the “hERG current change (%, negative = inhibition) at 1uM” value came out at 10.3%. Then `Cc1csc(NC(=O)Cc2ccc(Br)cc2)n1`, with 12%. Consider `CCCCN(C)CCCNC(=O)C1CCC(CNS(=O)(=O)c2c(C)cc(C)cc2C)CC1` (stereo not drawn), for which the “hERG current change (%, negative = inhibition) at 1uM” value was -76.3%. Then `OC(c1ccccc1)(c1ccccc1)C1CCN(C(=S)NCCc2ccccc2)CC1`, with 13.9%; and `O=C(NC1(C(F)(F)F)Oc2ccc(Cl)cc2O1)N1CCC2(CC1)OCCO2` (stereo not drawn), with 15.3%; and `COc1ccc(C(CCNCc2ccc(OC(C)C)cc2)c2ccccc2OC)cc1` (stereo not drawn), with -24.2%.

For `CCn1c(=N)n(CCOc2ccc(OC)cc2)c2ccccc21`, the “hERG current change (%, negative = inhibition) at 1uM” value is reported as -25.5%.

For `O=C(CCN1C(=O)S/C(=C\c2ccc(F)cc2)C1=O)Nc1ccc(O)cc1C(=O)O`, the “hERG current change (%, negative = inhibition) at 1uM” value is 13.6%.

With `Cc1nnsc1C(=O)Nc1ccccc1`, the “hERG current change (%, negative = inhibition) at 1uM” value came out at 16.3%. For `CCC(=O)Nc1ccc(C(=O)NNC(=O)c2ccc(C)cc2)cc1`, the “hERG current change (%, negative = inhibition) at 1uM” value stood at 10.9%. `Fc1ccc2c(c1)[C@H]1OCC[C@H]1[C@@H](c1ccco1)N2`: the “hERG current change (%, negative = inhibition) at 1uM” value is recorded as 13.1%. Regarding `COCCCNC(=O)C(=O)Nc1cc2c3c(c1)CCN3C(=O)CC2`, the “hERG current change (%, negative = inhibition) at 1uM” value came out at 21.5%. Then `Cc1c(Cl)c([N+](=O)[O-])nn1CCCC(=O)Nc1cc(Oc2ccccc2)cc([N+](=O)[O-])c1`, with 1.66%; and `O=C(COC(=O)c1cccc(-n2cnnn2)c1)Nc1c(Cl)cccc1C(F)(F)F`, with 20.9%.

Turning to `Nn1c(SCC(=O)Nc2ccc3c(c2)OCCO3)nncc1=O`, the “hERG current change (%, negative = inhibition) at 1uM” value was determined as 16.4%. Then `CCC(C)C(NC(=O)C1CCC(C)CC1)C(=O)Nc1ccc(OC)cc1` (stereo not drawn), with 11%; and `COc1ccc(CC(=O)OCC(=O)Nc2ccc(Cl)c(S(=O)(=O)N(C)C)c2)cc1`, with 18.3%.

For `O=C(O)c1cccc(NC(=S)N/N=C/c2cccc(O)c2)c1`, the “hERG current change (%, negative = inhibition) at 1uM” value was 3.83%. Then `CCOC(=O)c1c(S(=O)(=O)NCC(=O)NCc2cccc(C)c2)c(C)n(C)c1C`, with 11.7%. To `Cc1cccc(N2CCN(C(=O)CCNS(=O)(=O)c3cccs3)CC2C)c1` (stereo not drawn) belongs 15%. Consider `O=[N+]([O-])c1cc(Br)c(OCc2nnc(-c3ccccc3)o2)c(Br)c1`, for which the “hERG current change (%, negative = inhibition) at 1uM” value is listed as 4.33%. To `CCC(C)n1cnc2c(c1=O)c1nc3ccccc3nc1n2Cc1ccc(OC)cc1` (stereo not drawn) belongs 6.21%.
